Among the data in the RNAGym collection of RNA variant scans (doi:10.7554/elife.90254) are self-cleavage values, retold here.

B1: LINE1-mini (parent)
chain: GGCAGAGCUCAACACAGCGUGGCAAAGUGGCUGUGGCUAGACUGCC

The source gives no read counts; variants with many changes may rest on few reads.

Variants of B1 are the subject of this series. The experiment in a line: self-cleavage, relative activity (ratio to wild type); higher = more cleavage; in vitro, sequencing; the parent is a self-cleaving ribozyme.
As to C13U C18A C45A, the self-cleavage stood at 0.02. Consider C13U C15U A16C C31G, for which the self-cleavage is 0.13. With C13A C15G G22C C31A C42A, the self-cleavage is 0. Consider C13U G19U G40C, for which the self-cleavage was 0.03. As to C13A A14C A16U C45G, the self-cleavage is 0.17. Turning to C13A U34C G44U C46A, the self-cleavage turned out to be 0.04.

Consider C13A A14C A25U C45U, for which the self-cleavage was 0.08. C13G U28A G36A: the self-cleavage was found to be 0.11.

Consider C13A A14U G19A G21A A26U A41U, for which the self-cleavage was found to be 0.06.

Take C13A U32C U43G: the self-cleavage is 0.01. Consider C13G G22C A26C, for which the self-cleavage came to 0.32.

As for C13A U20A G27C C31A U34G, the self-cleavage came out at 0.03. With C13U C15A A16U A41U C46G, the self-cleavage stood at 0.05. As to C13G A16G A39U C42G, the self-cleavage turned out to be 0.01. For C13A A24U G36A A41C, the self-cleavage was found to be 0.02. As for C13U A14C A26U, the self-cleavage came to 0.01. In the case of C13G G36C A41C, the self-cleavage amounted to 0.1.

As for C13G G22U A25U U32G U34C C37G C45U, the self-cleavage amounted to 0.04. Turning to C13A G22U G30A, the self-cleavage was 0.2. C13A G17U G22A U34G: the self-cleavage was 0.02. Consider C13G C18A G19A C31U, for which the self-cleavage was 0.06.

As to C13U C23A G33U, the self-cleavage stood at 0.09. As to C13G G21A G22A, the self-cleavage turned out to be 0.51. For C13A U43G C45A, the self-cleavage was found to be 0.35. The result for C13U C15A G29U reads 0; that for C13G A41C C46G, 0.09. Take C13U G17U U20G: the self-cleavage amounted to 0.44.

For the variant C13U A14U G19U, the self-cleavage was 0.54.

On to C13G G19C A39C, for which the self-cleavage is 0.09. Take C13U C18U C37A: the self-cleavage came out at 0.02. C13A C37U A39U: the self-cleavage came to 0.01.

Take C13A C37A G40A: the self-cleavage is 0.38.

Take C13A A14U G21A G29A: the self-cleavage turned out to be 0.12.

With C13A C15U G21A U32G A41C, the self-cleavage was found to be 0.01. Take C13G C15U G44U: the self-cleavage came to 0.11.

Consider A12U U32C A41G C42G, for which the self-cleavage turned out to be 0.01.

On to C13U C31U G36U, for which the self-cleavage was found to be 0.01. The result for C13G G30A G33U C45U reads 0.08. For the variant C13A G19U A25U A26U G30U C45G, the self-cleavage came out at 0.01. As for C13A G17U G21A G29C G30A U43C, the self-cleavage worked out at 0. For A12U U20C A26C G29C, the self-cleavage was determined as 0.09. The result for C13U C37A U38G reads 0.02. The result for C13A U28G U32C reads 0.13.

C13U G19A A25U A26G C45A: the self-cleavage came to 0.03.

As for A12U G22U U34G G40U G44A, the self-cleavage turned out to be 0.01. With A12U U34A G36U C37A, the self-cleavage was found to be 0. The result for C13G A16G A26C reads 0.02.

In the case of C13A C31G C45G, the self-cleavage turned out to be 0.01.

In the case of A12U G21C G27U A41U, the self-cleavage is 0.08.

Turning to C13A A16U C18U G19U G22C C23A C45U, the self-cleavage was 0.04. Regarding A12U C37U G44U, the self-cleavage was 0.01. The same measure for C13G A14C G21U C45G: 0.01. Regarding C13U C37U G40C, the self-cleavage is 0.05. For C13A C18A C37A G40U, the self-cleavage was found to be 0.01.

As to C13A U20C C23U A24G C31G U34C, the self-cleavage was found to be 0.02. Take C13A G27C G40C: the self-cleavage is 0.03. The same measure for C13G G22U A39C: 0.03; for C13G G17A A25G G33U G40A C42A: 0.03.

Consider C13A G17A C18A G22A, for which the self-cleavage is 0.09. Regarding C13U C15A U28A, the self-cleavage was determined as 0.04. For the variant C13G A24G G35C G44U, the self-cleavage was found to be 0.49. As to C13A G17U G36A, the self-cleavage amounted to 0.04. The same measure for C13A G29U C46A: 0.19; for C13A A16C C31A: 0.03; for C13U A14G G22A G40C G44A: 0.03.

Regarding C13G C37U U38G, the self-cleavage stood at 0.07. The result for C13U C37G C42U reads 0.02; that for A12U U28A C45A, 0.01; that for C13U G19C C23A C45A, 1.35.

Regarding C13G G19U G40U, the self-cleavage was determined as 0. For C13U A16C A24U, the self-cleavage is 0.07. In the case of C13G G22A G33U C42G, the self-cleavage worked out at 0.09. For the variant C13A C42U C46G, the self-cleavage is 0.03. As for C13A G19C G22C A25G, the self-cleavage was 0.02.

For C13U A16C U32A A41U, the self-cleavage was 0.02. Take A12U U38G G44C: the self-cleavage came out at 0. On to C13G G21A C23A C45A C46A, for which the self-cleavage was 0.11. The same measure for C13G G21C C23U: 0.21; for C13G C18A G21A G33C U38A G40C G44C C46A: 0.

With C13G G35A C37A A39C, the self-cleavage turned out to be 0.07. On to C13U C31G C37G, for which the self-cleavage was 0.01. Turning to C13U C23U G29C, the self-cleavage is 0.1. As for C13G G17A A25G G35U, the self-cleavage amounted to 0.01. C13A G21A G33A: the self-cleavage is 0.1.

Consider C13U A16C C18G G21U G29U G36U C45U, for which the self-cleavage worked out at 0.1.

C13G G21U A25C U28A: the self-cleavage was 0.21.

For C13G C18A G30A G35U, the self-cleavage came to 0.08.

As to C13U C23U A24C C37U, the self-cleavage worked out at 0.05. Take A12U G21U A25C: the self-cleavage stood at 0.21. Regarding A12U G21C G22U U32G, the self-cleavage was determined as 0.05. As for A12U U20C C23U A24U G29C C31A G33U, the self-cleavage is 0.02.

C13A G36A C42G: the self-cleavage was found to be 0.01. Consider C13U A14C C18U C23G A39U C42G U43G, for which the self-cleavage is 0.01. For A12U U28A G40U, the self-cleavage amounted to 0.07. On to A12U U32A U43A, for which the self-cleavage was found to be 0. Take C13U A16G C23A A39U: the self-cleavage amounted to 0.04.

As for C13G C15G G29A, the self-cleavage turned out to be 0.06. Consider C13A A24U C31G U34A, for which the self-cleavage came out at 0.11. The same measure for C13A G27U A39G: 0.24. On to C13G C31G G36C, for which the self-cleavage came out at 0.02. The result for C13A G36U C37U G44U reads 0.2; that for C13A C31A U43A C46A, 0. In the case of C13G C18A G29U, the self-cleavage came out at 0.22. The result for C13A C15U A16U G29A reads 0.13; that for C13U C23G G27U G40U, 0.12. C13G G17A C31U U34A A39C C46U: the self-cleavage turned out to be 0.01. For C13G G29C G40U, the self-cleavage amounted to 0.16.

With C13G G21C C37U U43C C46U, the self-cleavage is 0.08. The result for A12U C23G A25C reads 0.12; that for C13G A16C C23G A41G G44C, 0; that for C13G G30C G33A A39C, 0.11. On to C13A U28C C31A G40U, for which the self-cleavage was 0. In the case of C13G A14G G17C, the self-cleavage stood at 0.02. In the case of C13U G17A A25G C46A, the self-cleavage turned out to be 0.11. Regarding C13A G33A U34C, the self-cleavage was determined as 0.02. A12U G21A G22A C23U A26C: the self-cleavage stood at 0.14.

Take C13U G21U A41C: the self-cleavage is 0.06.

C13G A39C A41C: the self-cleavage was found to be 0.02. As to C13A C23U A25C G30U G36U, the self-cleavage was 0.11. On to A12U G30U C37A, for which the self-cleavage is 0.05. Take C13U C18G U20C C45A: the self-cleavage came to 0.08. As to C13G C15A A16U G22U G35A A39G, the self-cleavage was 0.33. C13A G22A A25U A26G G27A C37A C42G C46G: the self-cleavage stood at 0.05. Turning to C13U C15U G21A G22U G40C, the self-cleavage stood at 0.14. Consider A12U C31A C37U U38A, for which the self-cleavage worked out at 0. Turning to C13G U20C G35A C42G, the self-cleavage was 0.04. The result for C13U C18U C45G reads 0.01; that for C13A C18A G22U C23U A25G, 0.01; that for C13A G19U G29A C31U U32C, 0.06. As to C13A G29U U38A C42U, the self-cleavage was determined as 0.11. In the case of C13A G22A G27U A41U, the self-cleavage is 0.15. Take C13U A25G G29U U32G: the self-cleavage turned out to be 0.06.

Take C13A G17U C42A: the self-cleavage stood at 0.37.

Turning to C13A C23A G35C, the self-cleavage came out at 0.32.

On to C13U A26U U32G G35A, for which the self-cleavage stood at 0.07. For C13A U20G U38A, the self-cleavage turned out to be 0.02.

Turning to A12U G29U C45U C46G, the self-cleavage worked out at 0.27. For C13A G22U A25G A39U G44C, the self-cleavage amounted to 0. The result for C13A C23G U38C C46A reads 0.05; that for C13G G19A G29C C37U C42U, 0.09; that for C13A A16G U38A, 0. Consider C13A A14U G29C C46U, for which the self-cleavage was found to be 0.19. Regarding C13G A16G U34A, the self-cleavage was 0.01. For the variant C13A A24C G35A G36C G44C, the self-cleavage turned out to be 0.02. As to C13U A24U G40U, the self-cleavage came to 0.12. A12U G30C C37U U38G: the self-cleavage came to 0. Regarding C13U A24C G29C, the self-cleavage came out at 0.06. Turning to C13U G21A G29U, the self-cleavage was 0.18.

For the variant C13A C15A G36U A41U, the self-cleavage is 0.03. Regarding C13G G17U G22A G30C, the self-cleavage is 0.01. On to C13A G19U G40U, for which the self-cleavage was determined as 0.01. The result for A12U C37U C45A reads 0.01.

Consider C13A C15U A24U, for which the self-cleavage stood at 0.08. The result for C13G C18A A25G G27U C45U reads 0.11; that for C13U C23A A26C C31A, 0.13. For the variant C13U A39C U43C, the self-cleavage came to 0. For C13U A16C C18U G22U C42A, the self-cleavage was found to be 0.03. As for C13U A26G U38A, the self-cleavage is 0.

With C13A G21U C42U, the self-cleavage was determined as 0.18. For the variant C13A A24G U34G, the self-cleavage was found to be 0.02.

Consider C13U A39U G40U, for which the self-cleavage was 0.04.

In the case of C13A U20A C31A G33A C42G, the self-cleavage is 0.02. With C13G G17A G27U, the self-cleavage was 0.03. As to C13A G22A G30C C37U, the self-cleavage came to 0.05. On to C13A G21A U32G C37U U38A G44A, for which the self-cleavage was 0.17. The result for A12U G17A G35C reads 0.21; that for C13A C15G G36C, 0.05.
